Experimental findings from a collection of fitness landscapes (doi:10.1126/science.1257360) are described below.

This is one part of the list.

To fix the notation:
B1: PhoQ; a variant is named by its letters at X, in order, P23837 (parent)
chain: MKKLLRLFFPLSLRVRFLLATAAVVLVLSLAYGMVALIGYSVSFDKTTFRLLRGESNLFYTLAKWENNKLHVELPENIDKQSPTMTLIYDENGQLLWAQRDVPWLMKMIQPDWLKSNGFHEIEADVNDTSLLLSGDHSIQQQLQEVREDDDDAEMTHSVAVNVYPATSRMPKLTIVVVDTIPVELKSSYMVWSWFIYVLSANLLLVIPLLWVAAWWSLRPIEALAKEVRELEEHNRELLNPATTRELTSLVRNLNRLLKSERERYDKYRTTLTDLTHSLKTPLXXLQXXLRSLRSEKMSVSDAEPVMLEQISRISQQIGYYLHRASMRGGTLLSRELHPVAPLLDNLTSALNKVYQRKGVNISLDISPEISFVGEQNDFVEVMGNVLDNACKYCLEFVEISARQTDEHLYIVVEDDGPGIPLSKREVIFDRGQRVDTLRPGQGVGLAVAREITEQYEGKIVAGESMLGGARMEVIFGRQHSAPKDE

Variants of B1 are the subject of the experiment. The experiment can be described thus: enrichment ratio after two sorts for PhoP signalling (ratio (wild type AVST 3.29)); higher = more functional. The note with it: with PhoP (E. coli).
Take DWVF: the enrichment ratio was not above 0.25.
To VSRN belongs not above 0.25.
To LCWN belongs not above 0.25; to LIIY, not above 0.25.
The value for NASQ was not above 0.25; that for LEVS was 0.357.
In the case of KDVP, the enrichment ratio is not above 0.25.
To YIMT belongs 0.602; to RITM, not above 0.25; to GWLH, not above 0.25.
To ELPS belongs not above 0.25.
To HQYA belongs not above 0.25; to ICTT, 11.9; to NNHR, not above 0.25.
Regarding TQLK, the enrichment ratio came to 4.42.
As to DTQF, the enrichment ratio was not above 0.25.
The value for LNKI was not above 0.25.
To DQVD belongs not above 0.25.
As for KYAG, the enrichment ratio is not above 0.25.
The value for TAQH was not above 0.25.
To KFHC belongs not above 0.25.
The value for WDSY was not above 0.25; that for MWLY was not above 0.25.
With FYHM, the enrichment ratio is not above 0.25.
The value for CTYL was not above 0.25.
On to VIVR, for which the enrichment ratio was not above 0.25.
Regarding FVFQ, the enrichment ratio was not above 0.25.
To VTQI belongs not above 0.25.
To PFID belongs not above 0.25; to CYSN, not above 0.25.
The value for SMAM was 8.06.
KTFL: the enrichment ratio was not above 0.25.
Consider VKNE, for which the enrichment ratio was not above 0.25.
To TSAA belongs 8.84; to DGHK, not above 0.25; to EYVQ, not above 0.25.
The value for LSDG was not above 0.25; that for AAGV was not above 0.25.
The value for GYMD was not above 0.25.
On to WFWR, for which the enrichment ratio was not above 0.25.
To TCQI belongs 15.2; to SVNR, 4.04; to WSPR, not above 0.25.
To TGGP belongs not above 0.25; to HERK, not above 0.25.
The value for EETA was not above 0.25; that for MYGH was not above 0.25.
In the case of TKYV, the enrichment ratio was 0.4.
The value for YQIL was not above 0.25; that for IMWA was not above 0.25; that for AVIK was 1.18.
The value for KEQA was not above 0.25; that for NRYT was not above 0.25; that for QDQP was not above 0.25.
To FFLC belongs not above 0.25; to RHCF, not above 0.25; to HPSQ, not above 0.25.
Consider WRRE, for which the enrichment ratio is not above 0.25.
The value for GNLI was 15.8; that for YAAT was not above 0.25; that for VMDQ was not above 0.25.
As for NNCM, the enrichment ratio was not above 0.25.
The value for IRQY was not above 0.25; that for KFTI was not above 0.25.
To YNFD belongs not above 0.25.
The value for NWAT was not above 0.25; that for TACM was 12.4; that for KNFE was not above 0.25.
As for QNSS, the enrichment ratio amounted to 8.09.
QEDC: the enrichment ratio was not above 0.25.
The value for TEFA was 11.3; that for WKGP was not above 0.25; that for SVHW was not above 0.25.
On to TYLG, for which the enrichment ratio amounted to 6.58.
The value for PCPE was not above 0.25; that for LLAL was not above 0.25; that for ETSE was not above 0.25.
The value for PFAQ was not above 0.25; that for GSGM was 8.45; that for MKQF was not above 0.25.
For the variant LEMK, the enrichment ratio was not above 0.25.
The value for LNPD was not above 0.25; that for TAEI was not above 0.25; that for PWCI was not above 0.25.
As for ATAD, the enrichment ratio is not above 0.25.
As for YKWN, the enrichment ratio was not above 0.25.
The value for TMSE was 15.9; that for DLVG was 1.7.
The value for TITI was 5.37; that for HYYS was not above 0.25.
The value for SRGV was not above 0.25.
Turning to WFRG, the enrichment ratio is not above 0.25.
Consider IQMV, for which the enrichment ratio is not above 0.25.
To SQNG belongs 9.56.
The value for YERT was not above 0.25; that for TYKQ was not above 0.25; that for LMYD was not above 0.25.
The value for YPQG was not above 0.25; that for QPNR was not above 0.25.
For the variant RFHW, the enrichment ratio was not above 0.25.
The value for VHLE was not above 0.25; that for KYTW was not above 0.25; that for RIVT was not above 0.25.
ILVR: the enrichment ratio was not above 0.25.
As for GTQN, the enrichment ratio was found to be 0.887.
Take VSVV: the enrichment ratio was not above 0.25.
To KPFA belongs not above 0.25; to GQLG, 4.28; to VGKK, not above 0.25.
To KRDH belongs not above 0.25; to HGFI, not above 0.25; to KRVN, not above 0.25.
The value for YVWP was not above 0.25; that for YDGW was not above 0.25.
In the case of MMAR, the enrichment ratio was not above 0.25.
To ALND belongs not above 0.25; to HFRW, not above 0.25.
To SNTN belongs 8.33; to TRPC, not above 0.25; to GHQG, not above 0.25.
The value for KASV was not above 0.25; that for RDMN was not above 0.25; that for FLPH was not above 0.25.
On to QQCV, for which the enrichment ratio was not above 0.25.
The value for YMYV was not above 0.25; that for MHQI was not above 0.25; that for NWYH was not above 0.25.
The value for TKNS was 2.26.
In the case of ALLF, the enrichment ratio was found to be 2.68.
HDEL: the enrichment ratio is not above 0.25.
Regarding GTIC, the enrichment ratio is not above 0.25.
To MRMW belongs not above 0.25; to YPHR, not above 0.25.
Consider VEWY, for which the enrichment ratio was not above 0.25.
With IMLM, the enrichment ratio was not above 0.25.
The value for KMDM was not above 0.25.
The value for TGMD was not above 0.25; that for GMFM was not above 0.25.
In the case of WLHA, the enrichment ratio was not above 0.25.
The value for AKWR was not above 0.25.
To FAVM belongs 5.58.
As for EGNL, the enrichment ratio was not above 0.25.
To ARPP belongs not above 0.25; to FCDN, not above 0.25.
The value for HVTR was not above 0.25.
To VDDS belongs not above 0.25.
Consider DPVW, for which the enrichment ratio was not above 0.25.
The value for IRRW was not above 0.25; that for WVHS was not above 0.25.
To PPHR belongs not above 0.25; to YNVY, not above 0.25; to CVSL, not above 0.25.
The value for RDHM was not above 0.25; that for NPVY was not above 0.25; that for NNTT was not above 0.25.
Turning to MERE, the enrichment ratio was not above 0.25.
To STAA belongs 4.26; to GNGM, 4.88; to NYKR, not above 0.25.
To LTQT belongs not above 0.25; to EPWF, not above 0.25; to PFYR, 1.49.
The value for HLHS was not above 0.25.
For the variant MFGK, the enrichment ratio is not above 0.25.
The value for DCNA was not above 0.25.
To DFAD belongs not above 0.25; to DCQQ, not above 0.25; to KYWA, not above 0.25.
To DFDT belongs not above 0.25.
Consider SMKQ, for which the enrichment ratio is not above 0.25.
The value for FLND was not above 0.25; that for WEFA was not above 0.25; that for LPDS was not above 0.25.
The value for YQEG was not above 0.25; that for HYNK was not above 0.25; that for GEDV was not above 0.25.
To HHYM belongs not above 0.25; to GDFC, not above 0.25; to MYCK, not above 0.25.
For the variant TMMC, the enrichment ratio was 5.99.
For the variant ARQG, the enrichment ratio is not above 0.25.
Regarding HWLD, the enrichment ratio was not above 0.25.
The value for KFHA was not above 0.25; that for WDPY was not above 0.25; that for RGNN was not above 0.25.
To MAQP belongs not above 0.25.
The value for ANSI was 18; that for VKFL was not above 0.25; that for SHDI was not above 0.25.
IWEQ: the enrichment ratio was not above 0.25.
The value for KRTN was not above 0.25.
As for RGDK, the enrichment ratio is not above 0.25.
For the variant NNGT, the enrichment ratio is not above 0.25.
The value for VWYA was not above 0.25; that for MKGF was not above 0.25; that for LWPS was not above 0.25.
To TVNG belongs 4.22; to NNVQ, not above 0.25; to INIT, not above 0.25.
To VFHT belongs not above 0.25.
Regarding LCLA, the enrichment ratio was not above 0.25.
To SNCV belongs 14.2; to HEFI, not above 0.25.
To KEMP belongs not above 0.25.
As to HAAH, the enrichment ratio was not above 0.25.
The value for PMKH was not above 0.25; that for PQYS was not above 0.25.
To VPHY belongs not above 0.25; to PIDK, not above 0.25.
To GGMC belongs not above 0.25.
For the variant MGVC, the enrichment ratio was not above 0.25.
To VRDG belongs not above 0.25; to MATW, not above 0.25; to IEGW, not above 0.25.
As to APGT, the enrichment ratio was not above 0.25.
The value for SPIT was not above 0.25.
To NECF belongs not above 0.25; to IEKT, not above 0.25; to NVAI, not above 0.25.
To KHVN belongs not above 0.25; to RWME, not above 0.25.
For the variant MSWV, the enrichment ratio amounted to 10.2.
Take QTIL: the enrichment ratio was not above 0.25.
Consider VIFL, for which the enrichment ratio was not above 0.25.
On to FCSR, for which the enrichment ratio was not above 0.25.
To MHRN belongs not above 0.25; to QDPG, not above 0.25; to MSDQ, not above 0.25.
As for RLRQ, the enrichment ratio was not above 0.25.
The value for ETYV was not above 0.25; that for LNPL was not above 0.25; that for IYVC was not above 0.25.
Turning to AMLC, the enrichment ratio was 6.08.
The value for LCHP was not above 0.25.
For the variant HMKK, the enrichment ratio is not above 0.25.
To VRMV belongs not above 0.25; to MAFH, 0.541; to LQHI, not above 0.25.
The value for QLVI was not above 0.25; that for VHFW was not above 0.25.
Take IFTM: the enrichment ratio was not above 0.25.
To HSNN belongs not above 0.25; to NKKA, not above 0.25; to IPVD, not above 0.25.
To NPMP belongs not above 0.25; to FFGV, not above 0.25.
The value for VETT was not above 0.25.
AKST: the enrichment ratio was 6.32.
The value for DAWW was not above 0.25.
The value for LTCE was not above 0.25; that for KTDN was not above 0.25; that for VFRL was not above 0.25.
The value for LYIS was not above 0.25; that for DTTG was not above 0.25; that for RYCK was not above 0.25.
Regarding AIVC, the enrichment ratio is 19.1.
The value for HENM was not above 0.25; that for NYFY was not above 0.25; that for TKTD was not above 0.25.
The value for HVYD was not above 0.25; that for PAEC was not above 0.25; that for SGKP was not above 0.25.
The value for PELW was not above 0.25; that for PECV was not above 0.25.
In the case of QWIG, the enrichment ratio was not above 0.25.
The value for NPWT was not above 0.25.
To FYIM belongs not above 0.25.
The value for CRDY was not above 0.25; that for EDGS was not above 0.25; that for WMYF was not above 0.25.
With IAID, the enrichment ratio was not above 0.25.
To EFQH belongs not above 0.25; to YLHE, not above 0.25.
To FWQI belongs not above 0.25.
PSVE: the enrichment ratio was not above 0.25.
For the variant KFLR, the enrichment ratio was not above 0.25.
RKHV: the enrichment ratio is not above 0.25.
To LMGC belongs not above 0.25; to DNWP, not above 0.25; to KFFY, not above 0.25.
The value for KQQV was not above 0.25; that for GLEY was not above 0.25.
To PTWN belongs not above 0.25; to DVYN, not above 0.25.
Regarding IQCE, the enrichment ratio was not above 0.25.
The value for TVSH was 15.9.
The value for LYDN was not above 0.25.
To KCYS belongs not above 0.25; to FYNR, not above 0.25.
Take MSLF: the enrichment ratio amounted to 1.86.
The value for PRSL was not above 0.25; that for TADA was 2.37; that for WVYM was not above 0.25.
The value for YSTL was 4.42; that for LTIL was not above 0.25.
The value for KPTF was not above 0.25; that for RILV was not above 0.25; that for SYCS was not above 0.25.
In the case of VCSL, the enrichment ratio was found to be 5.45.
To RLYN belongs not above 0.25; to TQER, not above 0.25.
To LYTI belongs not above 0.25; to WVRA, not above 0.25; to IMPM, not above 0.25.
Turning to TRER, the enrichment ratio is not above 0.25.
The value for WMLF was not above 0.25.
